Results as given in PMC4336329 (PLoS ONE, 2015).
The whole screen tested about 310,000 compounds, of which about 2,200 (0.71%) showed an effect of 50% or more. Effects have a minus sign here. Some of the results follow.

Target: human ether-à-go-go-related gene (hERG) potassium channel (human, UniProt Q12809)
Assay: primary screen, population patch clamp on CHO cells stably expressing hERG

human ether-à-go-go-related gene (hERG) potassium channel, sequence (Q12809 whole entry, looked up): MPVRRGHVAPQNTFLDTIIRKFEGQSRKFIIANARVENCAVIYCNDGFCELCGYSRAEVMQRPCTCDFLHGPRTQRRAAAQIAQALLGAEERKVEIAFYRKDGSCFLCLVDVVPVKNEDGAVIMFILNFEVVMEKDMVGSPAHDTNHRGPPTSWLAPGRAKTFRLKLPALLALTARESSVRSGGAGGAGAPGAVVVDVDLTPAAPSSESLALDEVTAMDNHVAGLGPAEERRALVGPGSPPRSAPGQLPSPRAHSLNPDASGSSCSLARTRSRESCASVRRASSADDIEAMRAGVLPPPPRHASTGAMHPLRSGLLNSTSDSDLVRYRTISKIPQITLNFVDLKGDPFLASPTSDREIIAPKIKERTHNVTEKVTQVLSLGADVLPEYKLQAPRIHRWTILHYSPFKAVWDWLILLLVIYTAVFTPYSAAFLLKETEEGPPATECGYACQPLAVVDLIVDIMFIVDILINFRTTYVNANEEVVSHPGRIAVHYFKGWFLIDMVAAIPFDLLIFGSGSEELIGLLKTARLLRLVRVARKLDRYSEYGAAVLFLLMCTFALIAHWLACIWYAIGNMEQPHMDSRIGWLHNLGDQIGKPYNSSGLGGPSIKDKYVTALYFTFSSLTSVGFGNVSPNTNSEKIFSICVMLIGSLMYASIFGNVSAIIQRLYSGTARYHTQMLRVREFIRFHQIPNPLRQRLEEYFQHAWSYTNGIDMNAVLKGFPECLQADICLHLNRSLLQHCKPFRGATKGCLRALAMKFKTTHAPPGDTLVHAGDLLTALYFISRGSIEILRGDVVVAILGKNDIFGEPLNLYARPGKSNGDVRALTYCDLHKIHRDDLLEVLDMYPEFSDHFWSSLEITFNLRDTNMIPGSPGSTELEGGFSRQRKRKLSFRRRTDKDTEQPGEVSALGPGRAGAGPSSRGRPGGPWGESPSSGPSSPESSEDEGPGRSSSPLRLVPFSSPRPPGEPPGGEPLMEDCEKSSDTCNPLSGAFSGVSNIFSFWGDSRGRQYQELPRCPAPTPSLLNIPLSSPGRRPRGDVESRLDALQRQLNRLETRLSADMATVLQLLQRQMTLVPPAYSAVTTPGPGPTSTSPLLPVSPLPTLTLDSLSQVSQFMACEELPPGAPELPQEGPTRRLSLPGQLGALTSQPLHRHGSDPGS

Row | Structure (SMILES) | hERG current change (%, negative = inhibition) at 1uM [%]
1 | CCCCC(=O)NCCc1ccc(S(N)(=O)=O)cc1 | 7.69
2 | CCCn1c(N)c(C(=O)CSc2nnc3n2CCCCC3)c(=O)[nH]c1=O | 4.02
3 | CCOC(=O)C1=C(C)Nc2ccccc2N=C1NC(=O)Cc1ccc(Br)cc1 | 16.4
4 | Cl.NCCc1nnc(SCC(N)=O)o1 | 17.7
5 | COC(=O)c1cn(NC(=O)CC2CCCCC2)c(=O)c2ccccc12 | 2.58
6 | Cc1ccccc1NC(=S)N1CCN(Cc2ccc3c(c2)OCO3)CC1 | 1.84
7 | Cc1ccc(C(=O)NCCCNc2ccccc2[N+](=O)[O-])cc1 | -9.76
8 | CCc1c(C)sc(NC(=O)CC#N)c1C#N | 9.32
9 | CC(C)C(OC(=O)c1cc2c(s1)CCCCC2)C(=O)NC(N)=O (centres unmarked) | 2
10 | Cc1cc(C)c(NC(=O)CSCc2nc3sc(C)c(C)c3c(=O)[nH]2)c(Cl)c1 | -4.67
11 | Cn1ncc2c(NNC(=O)c3ccc(O)cc3)ncnc21 | 8.72
12 | COCCn1c(=O)[nH]c2cc(C(=O)N3CCN(c4ccc(Cl)cc4)CC3)ccc2c1=O | 10.6
13 | CN1C(=O)/C(=C2\SC(N3CCCCCC3)=NC2=O)c2ccccc21 | 7.94
14 | CNC(=S)N1N=C2c3ccccc3CCC2C1c1ccccc1Cl (centres unmarked) | 9.81
15 | CCc1ccc2oc(C(=O)NCCc3ccc(S(N)(=O)=O)cc3)cc(=O)c2c1 | 8.05
16 | COc1ccc(C(=O)NCCCOc2cccc(NC(C)=O)c2)cc1 | -4.65
17 | CCn1nnnc1-c1ccc(OC)c(S(=O)(=O)N2CCCCC2)c1 | 2.43
18 | Cc1cccc(OCC(=O)N=Nc2c(O)[nH]c3ccc([N+](=O)[O-])cc23)c1 | 8.03
19 | Cc1cc(NC(=O)Cn2c(=O)oc3ccccc32)no1 | 7.8
20 | O=C(NC1CCN(Cc2ccccc2)C1)c1cc(COc2ccc(F)cc2F)on1 (centres unmarked) | -11.9
21 | CN(C)c1ccc(NC(N)=S)cc1 | 5.42
22 | O=C(N/N=C/c1ccc(OC(=O)c2ccc([N+](=O)[O-])cc2)cc1)c1cccnc1 | 14.2
23 | C=CCn1c(SCC(=O)c2cc(C)n(C(C)COC)c2C)nc2sc(C)c(C)c2c1=O (centres unmarked) | -17.3

Row | Structure (SMILES) | hERG current change (%, negative = inhibition) at 1uM [%]
24 | Cc1ccc2ccc(C(Nc3cccc(C(F)(F)F)c3)c3cccnc3)c(O)c2n1 (centres unmarked) | 4.55
25 | CCOc1ccc2ccccc2c1/C=N/NC(=O)CNC(=O)Cc1ccccc1 | 13.4
26 | O=C(CSc1nnc(-c2ccccc2)n1-c1ccccc1)c1ccc[nH]1 | 15.3
27 | O=C(COc1ccc2ccccc2c1)Nc1nccs1 | 3.47
28 | Cc1nc(N2CCC(C)CC2)c2c(C)c(C(=O)Nc3ccc4c(c3)OCCO4)sc2n1 | 16
29 | Clc1ccc(C[n+]2cc(-c3ccccc3)n3c2CCC3)cc1.[Cl-] | 7.34
30 | COC(=O)c1sccc1NC(=O)Nc1ccccc1OC | 0.31
31 | C/C(=N\NC(=S)NCCc1ccccc1)c1cccc(Br)c1 | 6.88
32 | COc1ccc(S(=O)(=O)NC2CC2)cc1C(=O)N1CCOCC1 | 10.8
33 | CCOCCCNC(=O)C(NC(=O)c1ccc(=O)[nH]c1)c1ccccc1 (centres unmarked) | 0.993
34 | COc1cc(C)c(C)cc1S(=O)(=O)N1CCCCC1c1cccnc1 (centres unmarked) | 8.66
35 | COc1ccc(CNC(=O)C(C)OC(=O)c2cccs2)cc1 (centres unmarked) | 8.79
36 | CCOC(=O)C1(CC2CC2)CCN(C(=O)c2cc(C)nc3ccc(CC)cc23)CC1 | -2.83
37 | OCC1(CCOc2ccccc2)CCN(Cc2ccc3cccc(F)c3n2)CC1 | -36.4
38 | O=C(Nc1ccc(C(=O)O)cc1)/C(=C\c1ccc(F)cc1)NC(=O)c1ccco1 | 18.7
39 | O=C(O)c1ccc([N+](=O)[O-])c2c1C(=O)c1ccccc1C2=O | 17.8
40 | CN(C)C(=O)c1ccc(Oc2ccc(C(=O)N(C)C)cc2)cc1 | -3.28
41 | Cc1cc(NC(=O)Nc2cccc(Cl)c2)n(C(C)(C)C)n1 | 11.3
42 | CCNC(=O)N1CCN(C(=O)NCC)CC1 | 21.4
43 | O=C(CSc1nc(-c2ccc(F)cc2)cc(C(F)(F)F)n1)NCc1cccs1 | 18
44 | CNC(=O)NC(=O)CSc1nnc(-c2ccco2)n1-c1ccccc1 | 14.7
45 | CCOC(=O)N(C)c1ccc(C(O)(C(F)(F)F)C(F)(F)F)cc1 | 16.4
46 | Cc1cc(Cl)ccc1C(=O)C1CCCN(C(=O)c2ccoc2)C1 (centres unmarked) | 8.06

Row | Structure (SMILES) | hERG current change (%, negative = inhibition) at 1uM [%]
47 | CN=C(NC)SC1CC(=O)N(c2ccccc2)C1=O (centres unmarked) | 4.58
48 | [O-][Cl+3]([O-])([O-])[O-].c1ccc(-c2[nH]c[n+](CC3CO3)c2-c2ccccc2)cc1 (centres unmarked) | 10.1
49 | CCOc1ccc(OCC)c(S(=O)(=O)NCc2ccccn2)c1 | 6.21
50 | CC(=O)NC12CC3CC(CC(CC(=O)O)(C3)C1)C2 | -0.549
51 | COc1ccc(/C=C2/C(=N)N3N=C(CC(=O)N4CCCC4)SC3=NC2=O)cc1 | 10.5
52 | COc1ccc(C(=O)CSc2cc(C)[nH]c(=O)n2)cc1 | 27.1
53 | Cc1ccccc1Nc1scc(-c2ccc(Br)cc2)[n+]1-c1ccccc1C.[Br-] | 7.69
54 | CCCN1CCN(C(=S)Nc2ccccc2C(F)(F)F)CC1 | 8.34
55 | O=C(c1ccccc1F)N1CCN(c2cnn(-c3cccc(Cl)c3)c(=O)c2Cl)CC1 | 5.28
56 | CSc1sc(C(=O)NCC2CC2)cc1S(=O)(=O)C(C)C | 11
57 | Cc1nccn1CC(O)COC1CCCCC1 (centres unmarked) | 7.3
58 | CN(CC(=O)NCc1ccco1)CC(=O)Nc1c(Cl)cccc1Cl | -1
59 | CCCS(=O)(=O)N1CCN=C1SCc1ccc(F)cc1 | 11.2
60 | CN(Cc1cnn(C)c1)C(=O)C1CCC(=O)N(C2CCCCCC2)C1 (centres unmarked) | 7.91
61 | O=C(N/N=C\c1cccc(Br)c1)c1ccccc1-n1cccc1 | 15.8
62 | Cc1noc(C)c1COc1ccc(C(=O)N2CCN(S(=O)(=O)c3ccccc3)CC2)cc1 | -3.61
63 | CC(C)c1nnc(SCC(=O)N2CCOCC2)n1C | 11.4
64 | COc1ccccc1NC(=O)Cn1c2ccccc2c2nc3n(c(=O)c21)CCS3 | 9.03
65 | Cn1c(Cn2c(=O)sc3ccccc32)nnc1SCC(=O)Nc1cccc(F)c1 | 11
66 | Cc1ccc(NC(=O)CSc2nncc3ccccc23)cc1 | 1.16
67 | CS(=O)CSc1nc2c(cc1C#N)CCCC2 (centres unmarked) | -1.11
68 | Cc1oc(C(=O)O)cc1CSCc1cc(C(=O)O)c(C)o1 | 13
69 | CCS(=O)(=O)c1ccc(C(=O)Nc2ccccc2OC)c(Cl)c1Cl | 13.8

Row | Structure (SMILES) | hERG current change (%, negative = inhibition) at 1uM [%]
70 | CC(C)c1nc(CN2CCCCC2)cc(=O)[nH]1 | 10.3
71 | Cc1ccc(NC(=O)c2cccc(S(=O)(=O)N3CCN(c4ccc(F)cc4)CC3)c2)nc1 | 8.81
72 | COc1cc(NC(=O)C2CCCCC2)c(OC)cc1NC(=O)c1ccccc1 | 11.5
73 | Cc1ccc(Cn2ccc(=O)c(OCc3c(Cl)cccc3Cl)c2C)cc1 | 10.7
74 | CC(C)(CCO)NC(=S)NC1CC2C=CC1C2 (centres unmarked) | 1.78
75 | Nc1ccc(C(=O)c2ccc3c(c2)OCCO3)cc1N | 7.89
76 | O=C(CNc1cccc2ccccc12)N/N=C/C(Br)=C/c1ccccc1 | 12.1
77 | O=C(CC1C(=O)NCCN1C(=O)Nc1ccc(F)cc1)Nc1ccc(F)cc1 (centres unmarked) | 15.7
78 | O=C(Cc1c(F)cccc1Cl)N1CCOCC1 | 0.858
79 | Cc1cccc(N2C(=O)NC(=O)/C(=C/c3cc4c(cc3[N+](=O)[O-])OCO4)C2=O)c1 | 14.9
80 | NNc1nc(-c2ccccc2)nc(-c2ccccc2)c1Br | 7.7
81 | CC(=O)CCCCn1cnc2c1c(=O)n(C)c(=O)n2C | 15.4
82 | CC1CCCC(C)N1/N=C/c1ccccc1OC(F)F (centres unmarked) | 14.2
83 | O=C(Nc1nnc(-c2ccccc2F)s1)Nc1ccccc1F | 16.5
84 | COc1ccc(OCC(=O)N2CCN(C(=O)c3cccs3)CC2)cc1 | -20.3
85 | COCCCN(C(=O)c1cc(C)oc1C)c1c(N)n(CC(C)C)c(=O)[nH]c1=O | 13.3
86 | Cc1ccccc1-c1nnc(SCC(=O)Nc2c(C)n(C)n(-c3ccccc3)c2=O)o1 | 4.01
87 | CCOC(=O)N/N=C\c1ccccc1OC/C=C/c1ccccc1 | 5.31
88 | CCCn1c(=O)c2c(C(F)(F)F)cc(-c3ccco3)nc2n(CCC)c1=O | 7.96
89 | CC(CN1CCOCC1)OC(=O)c1cccc(Cl)c1.Cl (centres unmarked) | 11.6
90 | Cn1c(=O)[nH]c(=O)c2c1nc(NCCN)n2CCOc1ccccc1 | 18.6
91 | COc1c(O)ccc(/C=N\NC(=O)c2ccc3c(c2)OCO3)c1[N+](=O)[O-] | 8.5
92 | CCN1CCN(C(=O)CCc2nnc(CCc3ccc(OC)cc3)o2)[C@@H](C)C1=O | 10.5
